Measurements from paper PMC12040169 (PLOS Biology, 2025).
Some of the results follow.

system: T1, C. trachomatis L2/434/Bu expressing GFP (CTL2-GFP); design: species or system HeLa; C. trachomatis total inclusion area by high-content imaging, normalised to DMSO; conditions: total inclusion area; 28.5 h, 10 µM; inhibitor
T1 construct: L2/434/Bu GFP intracellular growth in HeLa cells
Summary of the method: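 High-content images of fixed, Hoechst-stained infected cultures supply inclusion area and count (growth) plus nuclei number (viability), complementing bulk GFP/resorufin fluorescence. MIC determination is unchanged from the primary assay.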

Row | SMILES | % of control remaining
1 | COc1ccccc1CN(CC(C)(C)CN)C(=O)NC1C[C@H]1c1ccccc1 (some centres unmarked) [CBK002424C] | 71.089
2 | COc1ccccc1N1CCN(CC(=O)Nc2cc(Cl)ccc2C)CC1 [CBK270087] | 102.558
3 | O=c1[nH]cc(-c2ccc(F)cc2)cc1CNCc1ccccc1F [CBK284696] | 90.6144
4 | COc1ccc(OCCNC(=O)c2ccc(-c3ccccc3C)nc2N2CCN(C(=O)c3ccco3)CC2)cc1 [CBK076207] | 120.786
5 | CNC(=O)c1ccc(-n2ccnc2)c(-n2cccc2)c1 [CBK282461] | 111.348
6 | Cn1c(=O)c2c(=S)[nH]c(-c3ccccc3)nc2n(C)c1=O [CBK288422] | 125.407
7 | O=C1/C(=C/c2c(NCCCn3ccnc3)nc3ccccn3c2=O)SC(=S)N1CC1CCCO1 (centres unmarked) [CBK111310] | 85.8656
8 | O=C(O)CCC(=O)c1cccc([N+](=O)[O-])c1 [CBK263681] | 109.151
9 | CSc1ccc(-c2nccnc2OCCC(C)C)cc1 [CBK106802] | 77.638
10 | Cc1nc(CC(=O)N2CCC[C@@H]3NC(=O)c4ccccc4OCCCCC[C@@H]32)cs1 [CBK292113] | 102.249
11 | COc1ccc(S(=O)(=O)N(CC(=O)N2CCC(C(N)=O)CC2)c2ccccc2)cc1 [CBK265301] | 84.0213
12 | COc1cccc(-c2cnc3[nH]c(=O)n(CCCO)c3n2)c1 [CBK065036] | 81.6511
13 | CCn1c(C)nnc1SCCNC(=O)c1cnc(N(C)C)nc1C [CBK307135] | 56.2436
14 | OC[C@H]1O[C@@H](n2cnc3c(Cl)nccc32)C[C@H]1O [CBK201273] | 105.597
15 | CC(CSSCC(C)C(=O)O)C(=O)O (centres unmarked) [CBK260940] | 78.8705
16 | CC(NC(=O)Nc1ccc(C(=O)NC(C)(C)C)cc1)c1cccc(Cl)c1 (centres unmarked) [CBK298265] | 82.5151
17 | CC(C)(C)c1csc(NCc2c(O)ccc3ccccc23)n1 [CBK078381] | 42.5859
18 | O=C(C[C@@H]1CCNC[C@@H]1Cc1cc(CN2CCCCC2)on1)N1CCCCC1 [CBK289153] | 81.0001
19 | COc1cc(CN2CCC(N3CCN(c4ccccc4)CC3)CC2)ccc1OCc1ccccc1 [CBK264655G] | 92.7792
20 | O=C(Nc1ccccc1N1CCNCC1)C1CCC1 [CBK004755T] | 77.7653
21 | COC(=O)COc1ccc(Oc2nc(N(C)C)nc(N3CCOCC3)n2)nn1 [CBK267258] | 123.384
22 | O=S(=O)(NCc1ccco1)N1CCOCC1 [CBK268749] | 97.8208
23 | CC(C)CC(=O)N1C[C@H]2NC(=O)c3ccccc3C(=O)[C@@]2(C)C1 [CBK281659] | 95.3403
24 | CN1C(C(=O)O)=CC(c2ccc(F)cc2)=NS1(=O)=O [CBK287016] | 87.2975
25 | CC(C)c1ccc(SCCc2ccccn2)cc1 [CBK026575C] | 64.2231
26 | COc1ccc([C@H]2CN(Cc3ccccc3)[C@@H]3CCN(C(=O)c4ccccc4F)C[C@H]23)cc1 [CBK285542] | 64.6562
27 | Cc1cc2c(s1)c1cnn(CC(=O)NC(C)C)c(=O)c1n2C [CBK284155] | 69.6505

Row | SMILES | % of control remaining
28 | O=C(O)CCCC(=O)NC12CC3CC(CC(C3)C1)C2 [CBK286958] | 58.7734
29 | Cn1c(C(=O)OCC(=O)NC(C)(C)C)cc2occc21 [CBK284015] | 55.8618
30 | Cn1c(=O)c2c(ncn2CC(=O)Nc2cccc3ccccc23)n(C)c1=O [CBK133515] | 95.3843
31 | COc1nc(N)nc(C/C(=N\NC(=O)c2cccnc2)C2CC2)n1 [CBK019872] | 96.3812
32 | CN1CCN(C(=O)c2ccc(-c3ccccc3)nc2NCCc2ccccn2)CC1 [CBK076550] | 94.8207
33 | CS(=O)(=O)Nc1nccnc1N1CCNCC1 [CBK074045T] | 97.4621
34 | COCCCn1c(=O)[nH]c2ncc(-c3cc(OC)c(OC)c(OC)c3)nc21 [CBK064937] | 116.597
35 | Cc1ccc(CNCCNCCO)s1 [CBK278168C] | 113.757
36 | Cc1cccc(CN2CC[C@H]3[C@@H](C2)[C@H](c2ccsc2)CN3C(=O)c2ccccc2)c1 [CBK285619] | 74.4735
37 | CCOC(=O)c1c(NC(C)=O)nc2n1CCS2 [CBK023488] | 114.288
38 | CCN(CC)CC1CCCCC1=O (centres unmarked) [CBK023965G] | 109.731
39 | O=C(O)C(Cc1ccccc1)N1C(=O)/C(=C/c2cccc([N+](=O)[O-])c2)SC1=S (centres unmarked) [CBK263078] | 89.4678
40 | CC(C)Oc1ncc(C(=O)NCc2cccc(NC(N)=O)c2)cc1Cl [CBK306327] | 52.8089
41 | Cc1nc(C)c(-c2csc(Nc3ccc(O)cc3C)n2)s1 [CBK267346] | 111.42
42 | CCn1ccc(NC(=O)CC2CCN(Cc3cccc(C(F)(F)F)c3)CC2)n1 [CBK285997] | 81.0378
43 | O=C(c1ccco1)N1CCCC(n2cnc3cc(F)ccc32)C1 (centres unmarked) [CBK284475] | 100.215
44 | CSCC[C@@H]1CN2CCC[C@H]2CN1Cc1cnc(C)n1C [CBK285423] | 90.8439
45 | Cn1cnc2cc(C(=O)N3CC(C(=O)N4CCN(c5ccccc5)CC4)C3)ccc21 [CBK285664] | 87.521
46 | O=C(Nc1ccc(S(=O)(=O)N2CCCCCC2)cc1)c1ccc(NS(=O)(=O)c2ccccc2)cc1 [CBK268018] | 101.164
47 | O=C(CC1CCN(Cc2cccc(C(F)(F)F)c2)CC1)NCc1ccc2[nH]c(=O)[nH]c2c1 [CBK285954] | 101.85
48 | O=C1CC(C(=O)Nc2c(Cl)cccc2Cl)C2(CCCCC2)O1 (centres unmarked) [CBK058445] | 68.6547
49 | Cc1noc(NS(=O)(=O)c2ccc(NC(=O)COc3cccc(Br)c3)cc2)c1C [CBK264086] | 27.9665
50 | Cc1noc(C)c1S(=O)(=O)Nc1nc(=O)[nH]cc1F [CBK067569] | 94.8595
51 | CC1=C[C@@H](CNC(=O)NC(C)C)[C@H](C(C)C)C[C@H]1CC(=O)N1CCN(C)CC1 [CBK289047] | 97.467
52 | Cc1nc(-c2cccnc2)[nH]c(=O)c1CC(=O)N(C)C1CCCC1 [CBK304907] | 33.7883
53 | CC(Cc1ccccn1)N(C)C(=O)c1cccc(N2CCCC2=O)c1 (centres unmarked) [CBK282153] | 78.3095
54 | Cc1nc(-c2ccccc2)sc1CNC(=O)COc1ccc(F)cc1 [CBK092350] | 111.8

Row | SMILES | % of control remaining
55 | CO[C@@H]1CO[C@H]2[C@@H]1OC[C@@H]2Nc1nccc(-c2cccc(C#N)c2)n1 [CBK289532] | 75.9515
56 | Nc1ncnc(Nc2cccc(C(F)(F)F)c2)n1 [CBK017403] | 90.785
57 | NC(=O)c1ccc(NC(=O)N2CCCCC2CO)cc1 (centres unmarked) [CBK156185] | 106.424
58 | Cn1ccnc1C(NC(=O)c1cccnc1)c1ccc(F)c(F)c1 (centres unmarked) [CBK283807] | 104.767
59 | CSc1nncc(-c2ccc(Cl)cc2)n1 [CBK028747] | 12.7349
60 | O=[N+]([O-])c1cc(Br)cc(/C=N/Nc2nc3ccccc3[nH]2)c1O [CBK263486] | 108.384
61 | Nc1nnc(Sc2nc3ccccc3nc2N2CCCC2)s1 [CBK093750] | 122.137
62 | Cc1ccc(NC(=O)c2ccccc2NS(=O)(=O)c2cccc(C(=O)O)c2)cc1 [CBK296695] | 113.929
63 | CC(Oc1cccc(Cl)c1)n1cnnc1 (centres unmarked) [CBK022246] | 67.9605
64 | Cc1ccc(-c2csc3ncnc(SCc4csc(C)n4)c23)cc1 [CBK267244] | 105.337
65 | Cc1noc(C)c1CN1CC2CCN(c3ccccc3)C2C1 (centres unmarked) [CBK304847] | 19.3443
66 | CN1CCC(N2CCN(C(=O)NCc3ccc(Cl)c(Cl)c3)CC2)CC1 [CBK155883] | 82.8291
67 | Cc1nc(C(C)NC(=O)CCc2cnn(C)c2)c(C)s1 (centres unmarked) [CBK307064] | 61.6006
68 | Cc1ccc2c(c1)oc(=O)n2CCNC(=O)c1cccs1 [CBK284472] | 35.7337
69 | COCC1OC(n2cc(C)c(=O)[nH]c2=O)CC1O (centres unmarked) [CBK201338] | 139.39
70 | CCOc1ccc(-n2c(SCc3nc4ccccc4[nH]3)nc3sc4c(c3c2=O)CCCC4)cc1 [CBK264581] | 107.342
71 | CCCCCc1nc(N)c(-c2cccc(Br)c2)c(C#N)c1CCCC [CBK026574] | 110.811
72 | O=C1N=C(NCC2CCCCC2)SC1CC(=O)N1Cc2ccccc2C1 (centres unmarked) [CBK067016] | 51.5134
73 | CC(C)(C)NCC(O)COc1cccc2c3c(oc12)CCCC3 (centres unmarked) [CBK008871C] | 40.9962
74 | O=C(Nc1cccc2ccccc12)C1CCC(C(=O)Nc2cccc3ccccc23)CC1 (centres unmarked) [CBK268706] | 98.8789
75 | CC(=O)C1=C(C)NC(SCC(=O)c2ccc(F)cc2)=C(C#N)C1c1sccc1C (centres unmarked) [CBK262624] | 87.6057
76 | CC1CCN(C(=O)C2CC(=O)N(c3ccc(C(=O)O)cc3)C2)CC1 (centres unmarked) [CBK286568] | 76.6226
77 | O=C1c2cccc([N+](=O)[O-])c2C(=O)N1c1cc(Cl)cc(Cl)c1 [CBK115326] | 88.7504
78 | CCOc1cc(C(O)c2nnc(-c3ccccc3)o2)ccc1OCC(C)C (centres unmarked) [CBK132385] | 109.38
79 | CCN(CC)C(=O)CN(CCc1ccc(OC)c(OC)c1)C(=O)NCc1cc(C)on1 [CBK160581] | 99.7844
80 | O=C(/C=C/c1ccccc1)NC(=S)Nc1cccc(-c2nc3ncccc3o2)c1 [CBK263742] | 96.4334
